Hit rate of the full screen: of about 150,000 compounds, about 540 (0.36%) showed an effect of 50% or more. Some of the results follow.
tested on: Plasmodium falciparum; assay: Primary screen in NF54 nanoGlo assay, in single point, at 2uM, 72h; a lower Z score goes with more inhibition; format: functional, Erythrocyte; conditions: timepoint 72 hour

Structure (SMILES)	% Inhibition [%]	Z score
CCCN1C=NS(=O)(=O)c2cc(C(=O)Nc3ccccc3CC)ccc21	-3	0.54
O=C(NC1CC1)N[C@H]1CCN(C(=O)C(C2CCC2)C2CCC2)C1	32	-1.68
CC(C)CCn1c(C(=O)Nc2ccccc2)cc2cc(NC(=O)c3ccco3)ccc21	-8	1.11
Cn1cnn(CC(=O)N(c2ccsc2)C2CCCCC2)c1=O	10	-1.12
CC(C)N1CCC(N2CCN(CC#Cc3ccccc3)C[C@@H]2CCO)CC1	-16	3.2
COCCOc1ncccc1NC1CCC1	3	-0.31
c1ccc2[nH]c(CNc3nc(-c4ccncc4)nc4c3CCNCC4)cc2c1	-7	1.42
O=C(Nc1c(F)cccc1F)N1CCn2nc(C3CC3)cc2C1	-21	2.36
CC[C@]1(O)CCOC2(CCN(C(=O)CC3CC3)CC2)C1	-8	1.34
CCn1cc(CN2CCCC[C@@H]2CCN(C)C)cc1C#N	1	-0.2
Cc1cc(CNC(=O)c2sc(C)nc2C)ncn1	20	-2.62
O=S1(=O)CC[C@H](NC2CC=CC2)c2cc(Cl)ccc21	-7	1.02
Cc1ccc(CNC(=O)N[C@@H](CC(C)C)C(=O)O)cc1	-10	1.23
CS(=O)(=O)N1CCC[C@H](C(=O)Nc2cccc(OC(F)(F)F)c2)CCNC(=O)CC1	-6	0.74
O=C(c1cc2occc2c(Nc2ccc(F)cc2)n1)N1CCN(C2CCCCC2)CC1	-14	1.42
O=C(Nc1ccc(N2CCN(C3CCCCC3)C2=O)nc1)c1cccs1	8	-0.88
O=C(OCCOc1ccccc1F)[C@H]1CCc2cn[nH]c2C1	-10	1.06
CS(=O)(=O)[C@H]1CCCN(c2cccnc2C#N)CC1	-5	0.93
CC(C)c1nsc(NC23CCC2CN(C(=O)CN2CCCC2=O)C3)n1 (stereo not given)	0	0.03
O=C1c2ccccc2C(=O)N1CN1CCOCC1	3	-0.46
CC[C@H]1CN(C(=O)c2c(C)ncn2C)CCN1C	-2	0.27
CCN(Cc1c(C)nn(C)c1Cl)C1CCCCC1	-6	0.8
Cc1n[nH]c(=O)c2cc(S(=O)(=O)Nc3ccc(Cl)cc3)cn12	-5	0.6
CC(C)(C)OC(=O)NCc1cccc(-n2ccnc2)c1	-6	0.65
CCC(C)N(CC(=O)N(Cc1ccco1)CC1CCCO1)S(=O)(=O)c1ccccc1 (stereo not given)	-7	1
CCc1ccc2c(c1)N=C(c1ccc(F)cc1)N=C(c1ccncc1)N2	-9	1.03
COc1ccc(S(=O)(=O)N2CCOCC2)cc1NC(=O)Cc1ccc(Cl)c(Cl)c1	-10	1.55
O=C(c1cc(F)ccc1F)N1CCN(CCO)[C@@H]2CS(=O)(=O)C[C@@H]21	4	-0.64

Structure (SMILES)	% Inhibition [%]	Z score
O=C(NC1CCCCCC1)c1cnn2c(-c3ccc(Cl)cc3)ccnc12	33	-3.73
CC(=O)NC[C@@H]1CN(C(=O)c2ccc3cc(C)ccc3n2)C[C@H]1c1cncn1C	-12	1.81
COc1cc(C2CN(C(=O)c3ccc(Cl)cc3)CC2C(=O)N2CCCC2)cc(OC)c1OC (stereo not given)	3	-0.51
Cc1ccc2nc(C(F)(F)F)n(N3C(=O)C4CC4C3=O)c(=O)c2c1 (stereo not given)	-5	0.59
CC(C)OCCN1CCC(c2cnn(C)c2)CC1	-6	0.86
O=C(N1CCNCC1)N(c1ccccc1)c1ccccc1	-11	1.22
COC(=O)[C@@H](NC(=O)c1ccc(C)nc1)C(C)(C)C	-8	1.21
Fc1ccccc1CNCc1cc2ccc(Cl)cc2nc1N1CCOCC1	-11	1.28
Cc1ccccc1C(=O)N(Cc1ccc(F)cc1)c1cccc(CC(=O)N2CCCC2)c1	2	-0.27
Cc1nc(O)c2c(n1)CN(Cc1ccc3cn[nH]c3c1)C2	-1	0.26
CCN(CC)Cc1c(N)c(C#N)c2ccccn12	-32	3.74
Cc1ccc(C(=O)N2CC[C@H](n3c(C)cnc3C3CC3)C2)cn1	-12	1.55
COc1ccc(N2C[C@@H](NC(=O)c3cnc(N(C)C)nc3C)CC2=O)cc1	5	-0.86
Cc1cnc(Cn2ccnc2[C@H]2CCOC(C)(C)C2)cn1	-3	0.53
O=C(C1CCOCC1)N1CCC[C@H]1c1nc(C2CCOCC2)no1	-16	2.11
Cc1ccnc(O)c1C(=O)N1CCc2c(CN3CCCC3)cccc21	-5	0.65
O=C(O)c1ccc(CN2CC[C@H](c3ccccc3)[C@H](CO)C2)cc1Cl	-11	1.65
Cc1ccc2nc(COc3ccc(C(=O)NCc4ccco4)cc3)cn2c1	-15	1.24
CC1OCCC1C(=O)N(Cc1ccccn1)c1ccc(F)cc1F (stereo not given)	-6	0.72
O=C(C[C@H](CCc1ccccc1)c1c[nH]c2ccccc12)NCc1ccccc1	0	-0.03
COc1ccc(CN(C(=O)c2oc3ccccc3c2C)[C@H]2CCS(=O)(=O)C2)cc1OC	-5	0.47
CCc1nc(Cn2nc3ccccn3c2=O)no1	-13	1.64
CC(=O)N1CC[C@H]2[C@H](CCCN2Cc2ccccc2-c2ccco2)C1	2	-0.29
Cc1cccc(C[C@H](C)Nc2nc(C)cnc2C)n1	1	-0.08
COc1ccc(C)cc1NC(=O)N1CCC2(CC1)CC(=O)N(CC(C)C)C2	11	-1.61
Cn1cc([C@]2(C)NC(=O)N(Cc3ccsc3)C2=O)cn1	-13	1.75
CCS(=O)(=O)c1c(S(=O)(=O)CC)c2c3ccccc3ccn2c1C(=O)c1ccc(Cl)cc1	-4	0.57

— ChEMBL document CHEMBL4888484, “Replenishing the malaria drug discovery pipeline: Screening and hit evaluation of the MMV Hit Generation Library 1 (HGL1) against asexual blood stage Plasmodium falciparum ,using a nano luciferase reporter read-out” (2022)
